Measurements from the supplement of paper PMC10369915.
The other results are listed elsewhere or left out. Cut-off read from the data, not from the text of the source: active = 3.2 or more and inactive = the rest. Most of these values are background signal.

What was measured:
Test in all cases: enrichment score (SH2-bound / input frequency) (ratio); bacterial display of known human phosphotyrosine sites (pTyr-Var adds point mutants) read by sequencing; higher = stronger binding; tyrosines were phosphorylated by kinases first
Details in all cases: peptide library: pTyr-Var
[1] = biological target: SHP2 C-SH2 domain E139D
[2] = biological target: SHP2 C-SH2 domain wild-type
[3] = biological target: SHP2 N-SH2 domain L43F
[4] = biological target: SHP2 N-SH2 domain T42A
[5] = biological target: SHP2 N-SH2 domain T52S
[6] = biological target: SHP2 N-SH2 domain wild-type

Measured: enrichment score
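Note: displayed peptides selected on beads carrying the immobilized SH2 domain, with library peptides lacking any tyrosine serving as negative controls.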

LRTAVHHEILI [CREBBP_Y1450_Y1450H]
inactive: [1] 1.77 | [2] 1.61 | [3] 2.01 | [4] 1.19 | [5] 1.58 | [6] 2.1

NTEGGYRCICA [CRELD1_Y328]
inactive: [1] 0.781 | [2] 0.903 | [3] 0.776 | [4] 0.521 | [5] 0.827 | [6] 0.71

FSGKAYADEEQ [CRIM1_Y826_R831Q]
inactive: [1] 0.649 | [2] 0.659 | [3] 0.651 | [4] 0.64 | [5] 0.659 | [6] 0.658

LSQAKYQIRFR [CRLF1_Y272_F268S_YF]
inactive: [1] 0.615 | [2] 0.601 | [3] 0.697 | [4] 0.695 | [5] 0.721 | [6] 0.542

FAKTQYPDIFA [CRX_Y63_V66I_YF]
inactive: [1] 1.11 | [2] 0.858 | [3] 1.05 | [4] 1.13 | [5] 1.24 | [6] 0.987

QFPDIYAREEV [CRX_Y67_V66I_YF]
inactive: [1] 1.12 | [2] 1.12 | [3] 1.1 | [4] 0.874 | [5] 1.22 | [6] 1.12

QFPDVYAREEV [CRX_Y67_YF]
inactive: [1] 1.33 | [2] 0.913 | [3] 1.2 | [4] 0.854 | [5] 1.05 | [6] 1.37

TLGPFYPSLLF [CRYAA_Y18_R21L]
inactive: [1] 0.66 | [2] 0.875 | [3] 0.704 | [4] 0.738 | [5] 0.776 | [6] 0.88

FQGRRYDCDCD [CRYGS_Y21]
inactive: [1] 0.529 | [2] 0.512 | [3] 0.418 | [4] 0.476 | [5] 0.502 | [6] 0.436

HLEKKYVHRDS [CSF1R_Y708_R710H]
inactive: [1] 0.615 | [2] 0.481 | [3] 0.515 | [4] 0.419 | [5] 0.682 | [6] 0.61

LVKDGYQMAQP [CSF1R_Y873]
inactive: [1] 0.94 | [2] 0.845 | [3] 0.878 | [4] 0.826 | [5] 0.815 | [6] 1.03

PVKDGYQMAQP [CSF1R_Y873_L868P]
inactive: [1] 0.603 | [2] 0.612 | [3] 0.689 | [4] 0.627 | [5] 0.653 | [6] 0.902

RREQDYTNLPS [CSF1R_Y923_R921Q]
inactive: [1] 0.209 | [2] 0.213 | [3] 0.151 | [4] 0.306 | [5] 0.248 | [6] 0.226

NHQFDYTFHWT [CSNK1A1_Y294_D297H_YF]
inactive: [1] 1.26 | [2] 1.2 | [3] 1.06 | [4] 1.23 | [5] 1.14 | [6] 1.08

GLAKGYIDPET [CSNK1G2_Y195_E194G]
inactive: [1] 0.679 | [2] 0.498 | [3] 0.496 | [4] 0.414 | [5] 0.69 | [6] 0.611

KKHIPYSEHKS [CSNK1G2_Y206_R207S]
inactive: [1] 3.03 | [2] 2.93 | [3] 2.46 | [4] 2.32 | [5] 2.59 | [6] 2.75

KKHIPCREHKS [CSNK1G2_Y206_Y206C]
active: [1] 4.19 | [2] 3.49 | [3] 3.71 | [4] 3.34 | [5] 3.89 | [6] 3.28

KKHIPHREHKS [CSNK1G2_Y206_Y206H]
active: [1] 5.95 | [2] 4.51 | [3] 4.74 | [4] 4.2 | [5] 4.44 | [6] 4.39

QTSTDYDIRFY [CSNK2A1_Y131_L128S]
inactive: [1] 0.402 | [2] 0.745 | [3] 0.562 | [4] 0.683 | [5] 0.966 | [6] 0.782

QTLTDYDIRFF [CSNK2A1_Y131_YF]
inactive: [1] 0.692 | [2] 0.76 | [3] 0.779 | [4] 0.724 | [5] 0.701 | [6] 0.895

LGQGKYSEVFE [CSNK2A1_Y50_R47Q]
inactive: [1] 0.897 | [2] 0.879 | [3] 1.04 | [4] 0.937 | [5] 0.887 | [6] 1.02

PKGIGYGQGAG [CSRP3_Y73]
inactive: [1] 0.465 | [2] 0.649 | [3] 0.548 | [4] 0.495 | [5] 0.574 | [6] 0.575

PKGIRYGQGAG [CSRP3_Y73_G72R]
inactive: [1] 0.623 | [2] 0.561 | [3] 0.565 | [4] 0.508 | [5] 0.653 | [6] 0.566

IPGGIYDADLN [CST4_Y35]
inactive: [1] 1.06 | [2] 0.956 | [3] 1.35 | [4] 0.726 | [5] 0.868 | [6] 0.84

NVSILYTASQA [CTNNA1_Y222_P219S]
inactive: [1] 1.16 | [2] 0.935 | [3] 0.929 | [4] 1.07 | [5] 1.07 | [6] 1.17

ISKKIYDPIHD [CTNNA3_Y614_T616P]
inactive: [1] 0.804 | [2] 0.699 | [3] 0.789 | [4] 0.636 | [5] 0.814 | [6] 0.835

WQQQSYLDSGI [CTNNB1_Y30]
inactive: [1] 0.94 | [2] 0.803 | [3] 0.917 | [4] 0.867 | [5] 0.915 | [6] 0.92

WQQQSYLASGI [CTNNB1_Y30_D32A]
inactive: [1] 0.966 | [2] 0.8 | [3] 0.867 | [4] 0.782 | [5] 0.857 | [6] 0.937

WQQQSYLDSVI [CTNNB1_Y30_G34V]
inactive: [1] 0.741 | [2] 0.712 | [3] 0.738 | [4] 0.639 | [5] 0.907 | [6] 0.833

WQQQSYLDLGI [CTNNB1_Y30_S33L]
inactive: [1] 1.27 | [2] 1.13 | [3] 1.07 | [4] 1.5 | [5] 1.08 | [6] 1.41

WQQQSYLDYGI [CTNNB1_Y30_S33Y]
inactive: [1] 1.13 | [2] 1.13 | [3] 1.09 | [4] 1.37 | [5] 1.09 | [6] 1.1

SVSNNYIQTLG [CTNND1_Y174]
inactive: [1] 0.651 | [2] 0.922 | [3] 0.669 | [4] 0.8 | [5] 0.918 | [6] 0.693

SVFNNYIQTLG [CTNND1_Y174_S171F]
inactive: [1] 1.16 | [2] 1.32 | [3] 1.28 | [4] 1.31 | [5] 1.28 | [6] 1.16

YPPDGYSRHCE [CTNND1_Y213_Y217C]
inactive: [1] 0.792 | [2] 0.655 | [3] 0.718 | [4] 0.58 | [5] 0.608 | [6] 0.745

GYSRHCEDGYP [CTNND1_Y217_Y217C]
inactive: [1] 0.801 | [2] 0.861 | [3] 0.592 | [4] 0.716 | [5] 0.684 | [6] 0.978

PSRKDYETFQS [CTNND2_Y1154_P1159S_YF]
inactive: [1] 0.433 | [2] 0.373 | [3] 0.562 | [4] 0.367 | [5] 0.531 | [6] 0.307

PSRKDYETFQP [CTNND2_Y1154_YF]
inactive: [1] 0.863 | [2] 0.527 | [3] 1.11 | [4] 0.569 | [5] 0.401 | [6] 0.856
